Source: PubChem BioAssay AID1963576 (National Center for Advancing Translational Sciences (NCATS), 2024)
The whole screen tested about 46,000 compounds, of which about 60 (0.1%) were called active. Not shown: some 3% with an inconclusive outcome. Calls come from the whole dose curve; as a rule, active = well fitted inhibition curve with a large enough effect; inconclusive = small, poorly fitted or top-dose-only effect; inactive = no such curve, though single readings can be large or run the other way. The list shows a part of the results.

Experiment: Primary qHTS assay for Inhibitors of ovarian cancer metastasis using an organotypic tumor microenvironment (TME) model.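 For activity change, negative = inhibition: plate controls were DMSO wells for no effect and tomatine positive control wells for full effect.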 Note: nearly all actives have a fitted effect of over 65% in size.
Settings: SKOV3ip1-GFP adhesion/invasion on 3D omental model, fluorescence; series mostly up to 45.8 µM; activity change, negative = inhibition: at the top concentration
Outline: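 Adhesion/invasion was scored as fixed GFP-labeled SKOV3ip1 cell counts (488/509 nm), normalized to DMSO and tomatine controls. Cancer cells in serum-free medium, with four compound doses (0.36-46 umol/L), sat 2 hr at RT then 16 hr at 37 C on a 48 hr fibroblast/mesothelial/ECM culture.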

Activity change, negative = inhibition, inactive:
COc1ccccc1CNC(=O)CSc1nc2nc(C)c(Cc3ccccc3C)c(C)n2n1 -12.9%
Cc1cccc(N2C(=O)C(CC(=O)Nc3ccccc3)N(C3CCCCC3)C2=O)c1 (stereo not given) -5.43%
CCOC(=O)c1c(C)oc2nc(C)nc(NCCCN3CCN(c4ccccc4OC)CC3)c12 -8.2%
COC(=O)c1ccc(NC(=O)CC2C(=O)N(c3cccc(C)c3)C(=O)N2Cc2ccco2)cc1 (stereo not given) -5.01%
CCCC(=O)c1cc2c(cc1NC(=O)c1ccccc1F)OCCO2 -4.51%
Cc1ccc(CNC(=O)CCCn2c(=O)c3ccccc3n(Cc3ccccc3Cl)c2=O)cc1 -6.89%
CCCCOc1ccc(NC(=O)c2cc3c(n(-c4ccc(Cl)cc4)c2=O)CCCC3=O)cc1 0.925%
COc1ccc(-c2cc(C(F)(F)F)nc(SCC(=O)N3CCCCC3)n2)cc1 -9.04%
O=C(c1cccc([N+](=O)[O-])c1)N1c2nc(-c3ccco3)nn2C2(CCCCC2)[C@@H]2CCCC[C@@H]21 9.83%
Cc1ccc(OCC(=O)N(Cc2ccc(N(C)C)cc2)CC2CCCO2)cc1C (stereo not given) -8.81%
CCCN1CCN(CCNC(=O)Nc2cc(Cl)c(OC)cc2OC)CC1 2.46%
Cc1cc(C)c(-c2csc(-c3cc4ccccc4oc3=O)n2)cc1C -6.22%
CC(=O)Nc1ccc(NC(=O)CC(C)n2ccc(C)n2)cc1 (stereo not given) 21.9%
Cc1cc(C(=O)Nc2cccc(C(F)(F)F)c2)c2c(C)nn(-c3cccc(F)c3)c2n1 -1.06%
O=C(Cn1c(=O)n(CCCS(=O)(=O)C2CCCCC2)c(=O)c2ccccc21)Nc1ccccc1F 1.99%
COc1cccc(CNC(=O)C2CCCN(S(=O)(=O)c3ccc4c(ccn4C)c3)C2)c1OC (stereo not given) -2.33%
Cc1oc(-c2cccc(Cl)c2)nc1CN1CCC(C(=O)NCc2ccc(F)cc2)CC1 3.75%
O=C(NCCc1ccccc1)c1c2c(nc3ccccc13)C(=O)N(C1CCCCC1)C2 -3.85%
COc1ccc(NC(=O)CCn2nc(-c3ccc(Cl)cc3)c3ccccc3c2=O)cc1 8.68%
O=C(Nc1nnc(N2CCCC2)s1)Nc1cc(F)ccc1F 10.3%
Cc1cccc(-c2nc3c4ccccc4n(CC(=O)Nc4cc(F)ccc4F)c(=O)n3n2)c1 5.42%
Cc1cc2c(n1-c1ccc(C(=O)NCc3cccc(Br)c3)cc1)CCC(C)C2 (stereo not given) -10.5%
Cc1ccccc1Cn1c(=O)n(CCCCC(=O)NCc2ccc3c(c2)OCO3)c(=O)c2ccccc21 9.23%
CCCN1C(=O)c2[nH]nc(-c3ccc(F)cc3)c2C1c1ccc(O)c(OCC)c1 (stereo not given) -0.983%
CC(=O)c1cccc(NC(=O)C2CCN(c3nnc(-n4cccc4)s3)CC2)c1 -8.12%
COc1ccc(S(=O)(=O)Nc2c(C)n(C)n(-c3ccccc3)c2=O)cc1Br 6.76%
COc1ccc(COc2cc3oc(=O)c4cc(C(C)O)ccc4c3cc2OC)cc1 (stereo not given) -9.78%
CCOC(=O)c1[nH]c(C)c(CCC(=O)Nc2ccc(C)cc2Cl)c1C 0.537%
CCOc1ccc(CNC(=O)C(C)n2ncn3cccc3c2=O)cc1 (stereo not given) 15.3%
O=C(c1ccc(Br)cc1)N1CCC(c2nc3ccccc3s2)CC1 4.19%
COc1ccc(CCNc2nc(-c3ccccc3OC)cc(C(F)(F)F)n2)cc1OC 19.1%
CC(C)Nc1cc(N2CCN(C3CCCCC3)CC2)c2noc3c2c1C(=O)c1ccccc1-3 5.93%
CCCc1cc(N2CCN(c3ccccc3F)CC2)n2cnnc2n1 15.3%
CCOC(=O)c1c(C)oc2nc(C)nc(NCCc3ccc(C)cc3)c12 1.78%
COc1cc(NC(=O)CN2CCCN(Cc3cccc(F)c3)S2(=O)=O)cc(OC)c1 -9.34%
CCCNC(=O)c1cc2n(n1)CCCN(Cc1ccc(C)cc1)C2=O 6.66%
CCOc1ccc(NC(=O)CSc2oc(-c3ccco3)nc2S(=O)(=O)c2ccccc2)cc1 -23.5%
Cc1ccc(NC(=O)c2oc3ccc(S(=O)(=O)N(C)C4CCCCC4)cc3c2C)c(C)c1 5.35%
Cc1cccc(C(=O)Nc2ccc(N3CC=C(c4ccccc4C)CC3)c(C(=O)O)c2)c1 1.52%
Cc1ccc(CN2C(=O)c3ccccc3Sc3ccc(C(=O)N4CCOCC4)cc32)cc1 0.736%
CC1=C(C(=O)N2CCCCC2)C(c2ccc(Cl)cc2)n2c(nc3ccccc32)N1 (stereo not given) -1.85%
CCOC(=O)c1cccc(NC(=O)CSc2ncc3c(n2)-c2ccc(Cl)cc2N(Cc2ccccc2)S3(=O)=O)c1 -34.4%
COc1ccccc1CNC(=O)CCS(=O)(=O)c1ccc2c(c1)oc(=O)n2C 4.25%
CCOc1ccc(CNC(=O)CSc2c3c(nc4cc(Cl)ccc24)CCCC3)cc1 26.9%
O=C(NCCc1ccccc1)c1ccc2c(c1)nc1n2CCOC1 -4.75%
O=C(COc1ccccc1F)Nc1ccc2nc(SCC(=O)N3CCOCC3)sc2c1 -18.1%
O=S(=O)(c1ccccc1)c1nc(-c2ccc(F)cc2)oc1NCc1ccccc1 -8.87%
CC(C)Oc1ccc(C(=O)N(Cc2ccc(N(C)C)cc2)Cc2ccco2)cc1 -4.85%
COc1ccc(C(=O)NC(c2ccccc2Cl)c2cc(Cl)c3cccnc3c2O)cc1 (stereo not given) -29%
Cc1c(C)n(Cc2ccccc2)c2ccc(C(=O)N3CCN(c4ccccc4)CC3)cc12 -1.29%
CCN(CC)S(=O)(=O)c1ccc2c(c1)N(CC(=O)Nc1c(C)cccc1C)C(=O)C1CCCN21 (stereo not given) 36.6%
CCOC(=O)c1oc2c(c1C)-c1nn(Cc3cccc(Cl)c3)cc1CC2 -2%
CCN(C(=O)Cn1c(=O)oc2cc(S(=O)(=O)N3CCCCCC3)ccc21)c1cccc(C)c1 2.68%
CC(=O)O[C@H]1C[C@@H]2CC[C@H]3[C@H]4C[C@H]([N+]5(C)CCCCC5)[C@@H](OC(C)=O)[C@@]4(C)CC[C@@H]3[C@@]2(C)C[C@H]1[N+]1(C)CCCCC1 14.9%
O=C(NCc1ccccc1)NC1COc2ccccc2C1 (stereo not given) 7.51%
Cc1cccc(OC(=O)c2snnc2C)c1 10.7%
CCOc1ccc(NC(=O)c2sc(-n3nc(C)c(CCC(C)C)c3C)nc2C)cc1 -17.1%
Cc1cccc(NC(=O)C(=O)NCCCN2CCOCC2)c1 -4.3%
COc1ccc(CNCc2ccc(C(=O)O)s2)cc1 -1.64%
CCOc1ccccc1NC(=O)CSc1ncc2c(n1)-c1ccccc1N(CC)S2(=O)=O 1.35%
O=C(NCCc1ccc(Cl)cc1)c1ccc(Nc2nc3ccccc3n3nnnc23)cc1 -7.07%
COC(=O)c1cc2sccc2n1Cc1nc(-c2cccc(Cl)c2)oc1C 2.9%
CC1=C(c2ccc(C)cc2)S(=O)(=O)NC1=NCc1ccccc1Cl -5.2%
CCCCOC(=O)CSc1ncnc2sc3c(c12)CCC(C)C3 (stereo not given) -4.18%
Cc1ccc(-n2ncc3c(NCCc4ccc(S(N)(=O)=O)cc4)ncnc32)cc1 21%
CCC(C)Nc1nc2c(c(=O)[nH]c(=O)n2C)n1Cc1ccc(F)cc1 (stereo not given) 0.173%
Cc1ccccc1Nc1c(-c2ccc(N3CCOCC3)cc2)nc2cccc(C)n12 -22.7%
CCOc1ccccc1CNC(=O)c1ccc2nc(N3CCC(C)CC3)sc2c1 0.162%
Cc1cccc(NC(=O)c2ccc(CN3CC(=O)N4CCCCC4C3=O)cc2)c1C (stereo not given) 3.63%
COCCNC(=O)Cn1nc(-c2ccc(C)cc2)c2ccccc2c1=O -9.93%
CCCCn1c(CCCNC(=O)c2cccc(C)c2)nc2ccccc21 4%
Cc1ccc2oc(-c3cccc(NC(=O)c4cccc5c(Cl)cccc45)c3)nc2c1 -13%
COc1cccc(Cn2nnc3c(=O)[nH]c(C4CCCN(C(=O)c5ccccc5Cl)C4)nc32)c1 (stereo not given) 3.98%

outcome, inactive:
CCOC(=O)c1c(C)[nH]c(C)c1S(=O)(=O)N(C)CC(=O)N1CCN(c2cccc(C)c2C)CC1
COc1cccc(C(=O)Nc2nc3nc(C)c(Cc4ccccc4)c(=O)n3[nH]2)c1
Cc1nn(C)c2c1c(-c1ccccc1)cc(=O)n2Cc1ccc(Br)cc1F
COc1ccccc1C(=O)Nc1ccccc1C(=O)OCc1cc(=O)n2c(C)csc2n1
O=S(=O)(NCCc1csc2nc(-c3ccc(F)cc3)nn12)c1ccc2c(c1)OCCO2
Cc1nn2c3c(cnc2c1-c1ccc(F)cc1)C(=O)CC(c1ccccc1)C3 (stereo not given)
CC[C@]12C=CCN3CC[C@@]4(c5cc([C@@]6(C(=O)OC)C[C@H]7C[C@@H](C(C)(F)F)CN(Cc8c6[nH]c6ccccc86)C7)c(OC)cc5N(C)[C@H]4[C@@](O)(C(=O)OC)[C@H]1OC(C)=O)[C@@H]32
Cc1ccc(N2C(=O)CSC23C(=O)Nc2ccccc23)cc1F (stereo not given)
CCOC(=O)c1c(-c2ccccc2)oc2ccc(OCc3ccc(C)cc3)cc12
COc1cccc(NC(=O)Cc2ccc(NC(=O)N3CCCCc4ccccc43)cc2)c1
COc1ccc(C(=O)Cn2c(=O)n3nc(CCn4nc(C)cc4C)nc3c3cc(OC)c(OC)cc32)cc1
CCOc1ccc(C(=O)Nc2c(C)nc(Nc3ccccc3)nc2Nc2ccccc2)cc1OCC
CCOc1ccccc1CNC(=O)C1=C(C)C(=O)OC12CCN(C(C)=O)CC2
COc1ccccc1N1CCN(C(=O)CSc2nc(C)cc(=O)[nH]2)CC1
COc1ccc(-c2nc(C)c(CCNC(=O)c3ccc(C(F)(F)F)cc3)s2)cc1OC
Cc1c(-c2nsc(NC(=O)c3cccs3)n2)nnn1-c1ccc(F)cc1
Cc1ccc(S(=O)(=O)Nc2cc(Cl)c3oc4c(c3c2)CCCC4)cc1
COc1ccc(CNC(=O)CCCc2nnc3n(C(C)C)c(=O)c4sccc4n23)cc1
Cc1ccc(OCC(=O)NCC(=O)OCc2cc(=O)n3nc(C(C)C)sc3n2)cc1
Cn1cc(S(=O)(=O)N2CCCCCC2)cc1C(=O)NCc1ccc(F)cc1
COc1ccc(NC(=O)c2nc(SCc3ccc(F)cc3)ncc2Cl)cc1
C=Cc1ccc(Cn2c(C(=O)O)c(CNCCc3ccco3)c3ccc(C)cc32)cc1
